According to PubChem BioAssay AID602332 (National Center for Advancing Translational Sciences (NCATS), 2012):
In all, about 420,000 compounds went through this assay and about 75 (0.02%) were called active. Inconclusive means that the source gave no clear call. Such entries were picked first, then a sample of the others. Calls follow the shape of the dose curve; as a rule, active = well fitted activation curve with a large enough effect; inconclusive = small, poorly fitted or top-dose-only effect; inactive = no such curve, though single readings can be large or run the other way. A potency beside an inconclusive call is a rough fit, not a confirmed value.

Test: qHTS for Inducers of the Endoplasmic Reticulum Stress Response (ERSR) in Human Glioma: qHTS; also: nearly all actives have a fitted effect of over 35% in size; as to activation: % of control where 0% means no effect
Details: U87-MG GRP78 promoter luciferase reporter, 16 h; activation: hits give high values
From the text: Primary protein unfolding takes place for many diseases, including diabetes and hypoxia, , and triggers a reaction in the cells called ER stress response (ERSR). ). ERSR is designed as a repair mechanism, but ultimately leads to cell death via apoptosis if conditions triggering protein unfolding persist (1). The molecular clue to ERSR activation is the enhancement of the expression of key molecular chaperones, including the glucose regulated protein (GRP) 78. GRP78 is the main sensor for protein folding and the main actuator of the ERSR.
In a collaboration between the Southern Research Institute and the NIH Chemical Genomics Center, a cell based screen was developed that reliably uses GRP78 as a sensor to identify small molecules as inducers of ERSR. In resting conditions, GRP78 binds proteins and acts as a natural repressor. Once unfolded proteins are present in the ER, GRP78 releases some of the repressors and binds to the unfolded proteins. The release of the repressors executes the ERSR program. Using a human glioma cell line in a miniaturized, luminescent format, a high-throughput screen was developed to identify actuators of the ERSR.
(1) Soboloff, J. and S. A. Berger (2002). "Sustained ER Ca2+ depletion suppresses protein synthesis and induces activation-enhanced cell death in mast cells." J Biol Chem 277(16): 13812-20.
NIH Chemical Genomics Center [NCGC]
NIH Molecular Libraries Probe Centers Network [MLPCN]
Assay Submitter (PI): Maurizio Grimaldi, Southern Research Institute
Stable transfected human glioma cell line, U87-MG, are dispensed at density 1000 cells/well into Greiner white solid bottom 1536-well assay plates. Compounds are transferred via Kalypsys pin tool equipped with 1536-pin array (10nl slotted pins, V&P Scientific, San Diego, CA). The assay plates will be incubated for 16 hours and developed by adding appropriate quantities of the Promega Bright Glo reagent. The plates will be incubated at room temperature for 10 minutes prior to being transferred into a ViewLux high-throughput CCD imager (PerkinElmer), wherein end-point measurements of luminescence are acquired.
Potency is read from the fitted curve at half-maximal effect; tags tell the direction and shape of the fitted curve.

Structure (SMILES)	Potency	activation
CCOC(=O)C(Cc1c[nH]c2ccccc12)NC(=O)COc1ccc(Cl)cc1 (stereo not drawn)	inconclusive: 11.2 µM [activator, full curve, poor fit]	
O=C(/N=C1\NC(=O)C(F)(C(F)(F)F)S1)NC1CCCCC1 (stereo not drawn)		inactive: 4.41%
O=C(Cc1nc2ccccc2[nH]1)c1ccc(Cl)cc1	inconclusive: 50.1 µM [activator, partial curve, poor fit]	
CC(C)c1ccc(Nc2c(-c3ccccc3O)nc3cnccn23)cc1	inconclusive: 44.7 µM [activator, single point]	
C=CCc1cccc2cc(C(=O)N3CCN(c4ccccn4)CC3)c(=O)oc12		inactive: -1.62%
C/C(=N\Nc1nc2ccccc2[nH]1)c1ccc(C)o1		inactive: 2.08%
CNC[C@H](O)c1ccc(O)c(O)c1		inactive: -2.48% [middle of 6 runs]
CC(C)c1ccc(-c2csc(NC(=O)c3cccs3)c2C(=O)O)cc1	inconclusive: 7.08 µM [activator, full curve]	
C=CCOC(=O)COc1ccc2c3c(c(=O)oc2c1)CCCC3	inconclusive: 44.7 µM [activator, partial curve, poor fit]	
COC(=O)c1cc(-c2ccc(OC)c(OC)c2)on1	inconclusive: 44.7 µM [activator, partial curve, poor fit]	
Cc1ccc(SCc2[nH]nc3c2C(C(C)C)C(C#N)=C(N)O3)cc1 (stereo not drawn)	inconclusive: 50.1 µM [activator, single point]	
Cc1ccc(C(=O)Cc2nc3ccccc3[nH]2)cc1	inconclusive: 44.7 µM [activator, partial curve, poor fit]	
Cc1ccc(C(=O)N/C(=C/c2cccs2)C(=O)NCCCn2ccnc2)cc1		inactive: -6.17%
Cc1nn(-c2ccc(F)cc2)c2nc(N)c(C#N)c(-c3ccc(O)c(O)c3)c12		inactive: -2.06%
Cc1ccc(-c2noc(CCC(=O)NCCN3CCc4ccccc4C3)n2)cc1		inactive: 5.49%
O=C(O)CCSSCCC(=O)O		inactive: 0.382%
O=C(C=Cc1ccccc1F)c1ccccc1	inconclusive: 14.1 µM [activator, single point]	
CCOc1ccc(OCC)c(NS(=O)(=O)c2ccc(-c3coc(C)n3)cc2)c1	inconclusive: 28.2 µM [activator, single point]	
CCOC(=O)C(C(=O)OCC)C(Nc1ccccc1)c1ccccc1 (stereo not drawn)	inconclusive: 44.7 µM [activator, single point]	
Cc1ccc2c(CN3CCCCC3)cc(=O)oc2c1C	inconclusive: 28.2 µM [activator, full curve, poor fit]	
COc1ccc2[nH]c(=O)c(-c3nnn(-c4ccccc4)n3)cc2c1		inactive: 2.99%
CC(=O)N1CC(=O)N=C1SCC(=O)Nc1nc(C)c(-c2ccccc2)s1	inconclusive: 25.1 µM [activator, single point]	

Structure (SMILES)	Potency	activation
Clc1ccc(Sc2cc(Cl)c(Cl)cc2Cl)cc1	inconclusive: 28.2 µM [activator, single point]	
CSC1=NC(C)(C)C=C(/C=C/c2ccc(Cl)cc2Cl)N1	inconclusive: 28.2 µM [activator, single point]	
CSc1ccc(S(=O)(=O)NCC(=O)OCC(=O)N2CCCC2=O)cc1[N+](=O)[O-]	inconclusive: 28.2 µM [activator, partial curve, poor fit]	
COc1ccc(C)cc1NC(=O)Cn1c(=O)ccc2cc(S(=O)(=O)N3CCC(C)CC3)ccc21		inactive: -3.25%
COc1ccc(NC(=O)c2c(NCc3sccc3C)sc3c2CCCCC3)c(OC)c1	inconclusive: 50.1 µM [activator, single point]	
CC1CCCN(C(=O)c2sc3cc([N+](=O)[O-])ccc3c2Cl)C1 (stereo not drawn)	inconclusive: 10 µM [activator, partial curve, poor fit]	
CS(=O)(=O)c1ccc2sc(NC(=O)c3cc4ccccc4o3)nc2c1	inconclusive: 11.2 µM [activator, single point]	
O=C1CCSC2(C(=O)N(Cc3ccc(F)cc3)c3ccccc32)N1c1ccc(F)c(F)c1 (stereo not drawn)	inconclusive: 44.7 µM [activator, single point]	
CC(=O)N1/C(=C/c2ccc(N(C)C)cc2)C(=O)c2ccccc21	inconclusive: 11.2 µM [activator, single point]	
COc1ccc(C(=O)/C=C/c2ccc(OC)c(O)c2)c(F)c1	inconclusive: 12.6 µM [activator, single point]	
COc1ccc(C(=O)NC2CC2)cc1OC1CCN(Cc2ccc(Cl)cc2)CC1		inactive: -4.48%
CC(=O)n1cc(/C=N/NC(=O)c2ccccc2O)c2ccccc21	inconclusive: 2 µM [activator, partial curve, poor fit]	
Cc1[nH]c2ccccc2c1C(c1ccccn1)c1c(C)[nH]c2ccccc12		inactive: -6.2%
CCOc1cccc2c1OC(c1cc(OC)c(OC)c(OC)c1)N1N=C(c3ccc(C)o3)CC21 (stereo not drawn)	inconclusive: 3.16 µM [activator, full curve, poor fit]	
C=CCn1c(=O)c(C(=O)Nc2ncccc2C)c(O)c2ccccc21	inconclusive: 50.1 µM [activator, partial curve, poor fit]	
Cc1ccc(N(Cc2cc(=O)[nH]c3ccccc23)C(=O)c2ccco2)cc1	inconclusive: 44.7 µM [activator, partial curve, poor fit]	
CC1(C)Oc2ccc3ccc(=O)oc3c2C(/C=N/O)=C1Cl		inactive: -3.36%
Clc1ccc(-c2nc(N3CCCCC3)nc3ccccc23)cc1		inactive: 0.945%
COc1ccc2[nH]c(=O)c(CN(Cc3cccs3)Cc3nnnn3C(C)(C)C)cc2c1		inactive: -1.22%
CSc1cccc(NC(=S)N2CCC(N(C)C3CCCCC3C)CC2)c1 (stereo not drawn)		inactive: -4.88%
O=C(Nc1ccc2oc(-c3ccccc3F)nc2c1)c1cncc(Br)c1	inconclusive: 50.1 µM [activator, single point]	
